For 84 variants, enrichment ratio results are on record in a collection of fitness landscapes (doi:10.1126/science.1257360).

This is one part of the list.

Sequences and labels used below:
B1: PhoQ; a variant is named by its letters at X, in order, P23837 (parent)
chain: MKKLLRLFFPLSLRVRFLLATAAVVLVLSLAYGMVALIGYSVSFDKTTFRLLRGESNLFYTLAKWENNKLHVELPENIDKQSPTMTLIYDENGQLLWAQRDVPWLMKMIQPDWLKSNGFHEIEADVNDTSLLLSGDHSIQQQLQEVREDDDDAEMTHSVAVNVYPATSRMPKLTIVVVDTIPVELKSSYMVWSWFIYVLSANLLLVIPLLWVAAWWSLRPIEALAKEVRELEEHNRELLNPATTRELTSLVRNLNRLLKSERERYDKYRTTLTDLTHSLKTPLXXLQXXLRSLRSEKMSVSDAEPVMLEQISRISQQIGYYLHRASMRGGTLLSRELHPVAPLLDNLTSALNKVYQRKGVNISLDISPEISFVGEQNDFVEVMGNVLDNACKYCLEFVEISARQTDEHLYIVVEDDGPGIPLSKREVIFDRGQRVDTLRPGQGVGLAVAREITEQYEGKIVAGESMLGGARMEVIFGRQHSAPKDE

This test covers variants of B1. The test can be described thus: enrichment ratio after two sorts for PhoP signalling (ratio (wild type AVST 3.29)); higher = more functional. The following applies: with PhoP (E. coli).
As to GWKC, the enrichment ratio was at most 0.25. Regarding YSDD, the enrichment ratio is at most 0.25. Regarding PHNG, the enrichment ratio was at most 0.25. Next, YSIS: at most 0.25. KVQH: the enrichment ratio is at most 0.25. For VWRQ, the enrichment ratio is at most 0.25. For ISHK, the enrichment ratio was at most 0.25.

With RVCH, the enrichment ratio is at most 0.25. Consider FSWY, for which the enrichment ratio was at most 0.25. As for ILWC, the enrichment ratio was at most 0.25. For ETLG, the enrichment ratio was at most 0.25. Next, QQVW: at most 0.25; MPRK: at most 0.25; WYEW: at most 0.25.

As for IFAG, the enrichment ratio was at most 0.25. Turning to HHWQ, the enrichment ratio is at most 0.25.

As to RTKL, the enrichment ratio is at most 0.25. In the case of LREA, the enrichment ratio is at most 0.25. As to AHLN, the enrichment ratio is at most 0.25. Take TSCW: the enrichment ratio stood at 3.22. YGVF: the enrichment ratio is at most 0.25. In the case of TENP, the enrichment ratio is at most 0.25. With VDFL, the enrichment ratio is at most 0.25.

On to WLCM, for which the enrichment ratio is at most 0.25. Then KHTH, with at most 0.25; and NAHA, with at most 0.25.

On to TWVY, for which the enrichment ratio was at most 0.25. Consider RLGT, for which the enrichment ratio was at most 0.25. With KCFP, the enrichment ratio was at most 0.25. For LPYR, the enrichment ratio was at most 0.25. With SVCG, the enrichment ratio amounted to 13.3. Then VNEG, with at most 0.25; and FSAG, with 0.864; and IAPC, with at most 0.25. On to DITK, for which the enrichment ratio is at most 0.25. For PGRD, the enrichment ratio is at most 0.25. LLTM: the enrichment ratio is at most 0.25. FPKP: the enrichment ratio is at most 0.25. Next, MLRC: at most 0.25. Regarding HEHQ, the enrichment ratio was at most 0.25. Take PDQI: the enrichment ratio was at most 0.25.

Regarding SFHD, the enrichment ratio was at most 0.25. Then WSKC, with at most 0.25. With HVGP, the enrichment ratio is at most 0.25.

As to HMPW, the enrichment ratio was at most 0.25. Then SDKI, with at most 0.25; and DETT, with at most 0.25. Turning to VCKE, the enrichment ratio was at most 0.25. Turning to NTKR, the enrichment ratio is at most 0.25.

For the variant FNFW, the enrichment ratio is at most 0.25. Turning to YVMQ, the enrichment ratio is at most 0.25. With QPHD, the enrichment ratio is at most 0.25. With FHTR, the enrichment ratio was at most 0.25. As for PCGQ, the enrichment ratio was at most 0.25. On to SRDC, for which the enrichment ratio is at most 0.25. For the variant QCFC, the enrichment ratio was at most 0.25. On to WYCF, for which the enrichment ratio was at most 0.25. Take SELT: the enrichment ratio was found to be 20.5. Take DGYG: the enrichment ratio was at most 0.25. For LALN, the enrichment ratio is 3.27. Consider VPQG, for which the enrichment ratio was at most 0.25.

Regarding KPQG, the enrichment ratio is at most 0.25. Take DQQE: the enrichment ratio is at most 0.25. Turning to WNYM, the enrichment ratio is at most 0.25. Turning to MAHE, the enrichment ratio was at most 0.25. With ILRF, the enrichment ratio was at most 0.25. Next, FWFV: 0.357; TARV: at most 0.25; GFTT: at most 0.25. As to YTRG, the enrichment ratio was at most 0.25.

As for EMYL, the enrichment ratio was at most 0.25.

For the variant QLRL, the enrichment ratio is at most 0.25. Then LTDR, with at most 0.25; and WHWG, with at most 0.25; and HYEY, with at most 0.25. As to PLEG, the enrichment ratio is at most 0.25. Next, RQMI: at most 0.25. In the case of DDWM, the enrichment ratio was at most 0.25. As for TGRH, the enrichment ratio is at most 0.25.

As to MEFY, the enrichment ratio was at most 0.25. Then LVCK, with at most 0.25; and MAKR, with at most 0.25; and VMVY, with at most 0.25. Next, LREN: at most 0.25.
